# From PubChem BioAssay AID1508642 (National Center for Advancing Translational Sciences (NCATS), 2021)
# The whole screen tested about 43,000 compounds, of which about 200 (0.47%) were called active. Not shown: some 12% with an inconclusive outcome. Calls follow the shape of the dose curve; as a rule, active = well fitted cell-killing curve with a large enough effect; inconclusive = small, poorly fitted or top-dose-only effect, or effect the other way; inactive = flat fitted curve, though single readings scatter. The list shows a part of the results.
# Assay: Cell viability qHTS assay in S16 Pmp22-F2sN cells; also: nearly all actives have a fitted effect of over 65% in size
# Settings: S16 Pmp22-F2sN Schwann cells (luciferase reporters placed in the Pmp22 gene) viability, CellTiter-Glo, 24 h; series mostly up to 57.5 µM; activity change, negative = cytotoxicity: at the top concentration
# Text: Assay Provider: Jim Inglese Ph.D. National Center for Advancing Translational Science, National Institutes of Health, Rockville, MD CMT is a heterogeneous group of neurological disorders that affect approximately 1 in 2,500 people. In particular, the most common form of CMT, CMT1A is genetically linked to the duplication of the PMP22 gene which leads to Schwann cell overexpression, thus manifesting itself as a typical case of dose-sensitive diseases. To identify small molecule compounds that can mediate the expression of PMP22 we developed a phenotypic assay screening strategy by utilizing genome editing techniques to construct Schwann cell lines containing novel reporter technology to monitor the transcriptional or translational regulation of PMP22. For high sensitivity we use a bioluminescent reporter system embedded in the 3' UTR of the PMP22 gene (S16(c9) Pmp22-F2sN) to identify compounds that inhibit gene expression. […] We can further discriminate the effect of all transcriptionally active molecules on PMP22 translation or stability with an assay that incorporates a short NLuc peptide (HiBiT) at the C-terminus of expressed PMP22 (S16(f8) PMP22-HiBiT) allowing alpha complementation and luminescence detection of membrane-associated PMP22 protein. These assays were screened against the NCATS Sytravon Library Collection. Miniaturization of these assays to 1536-well plate format for quantitative high throughput screening (qHTS) yielded rich data sets immediately from the qHTS assay (S16(c9) Pmp22-F2sN), when compared with data from a cell viability assay (Cell TiterGlo) to identify compounds that decreased the output signals through cellular toxicity to streamline the selection process of actives for subsequent characterization using the HiBiT assay (S16(f8) PMP22-HiBiT).
# Cell viability assay in S16 Pmp22-F2sN cells PROTOCOL TABLE (format as described by Inglese J, Shamu CE and Guy RK. 2007) SEQUENCE No. (e.g., 1, 2, 3, etc.); […] (e.g., Cells, Incubation, Reagent, etc.); VALUE and DESCRIPTION. 1. Cells. Add 500-1,000 cells in 4 uL in growth media (DMEM High Glucose, No Phenol Red media + 10% heat-inactivated FBS + 1% Pen/Strep supplemented media) per well into Greiner 1536-well white/solid bottom high base, TC-treated plates. 2. Compounds. Library compounds and controls added at 23nL per well, transferred by Pin Tool. 3. Incubation. Incubate plates at 37C, 5% CO2, 95% RH for 24 h. 4. Reagent. Add 3uL CellTiter-Glo per well of Greiner 1536-well plates. 5. Incubation. Incubate plates at room temperature for 15 min., protect from light. 6. Detector. FLuc luminescence measured using CCD-based camera (Viewlux). NOTES (numbers refer to Sequence numbers above; values are from representative experiments) 6. Luminescence Read: Clear filter; Exposure = 1 sec, Gain = High, Speed = Slow, Binning = 2X REFERENCES: 1. Inglese J, Shamu CE and Guy RK, Reporting data from high throughput screening of small molecule libraries, Nature Chemical Biology, 2007, 3(8): 438-441. doi.org/10.1038/nchembio0807-438 2. Yasgar A, Shinn P, Jadhav A, Auld DS, Michael S, Zheng W, Austin CP, Inglese J and Simeonov A, Compound Management for Quantitative High-Throughput Screening. J. Assoc. Lab. Auto., 2008, 13: 79-89. doi: 10.1016/j.jala.2007.12.004
# % is scaled to controls: 0 for no effect and ±100 for the full control effect.
row,Compound,"activity change, negative = cytotoxicity"
1,Cc1cc2n(n1)CCCN2C(=O)Nc1ccc(C)c(Cl)c1,inactive: -0.0474%
2,Cc1ccc(C)c(N2CCN(S(=O)(=O)c3ccc(F)c(C(=O)Nc4ccc(Cl)cc4Cl)c3)CC2)c1,inactive: 4.12%
3,COc1ccc(-c2cn3nc(SCC(=O)Nc4ccccc4F)ccc3n2)cc1,inactive: 4.05%
4,Cc1cc(C)c(NC(=O)COCc2cc(-c3cccs3)on2)c(C)c1,inactive: -2.89%
5,O=C(CSc1nccn1Cc1ccc(F)cc1)NCc1ccccc1,inactive: 3.56%
6,Cc1cccc(OCC(=O)Nc2cccc(C(=O)OCc3cc(=O)n4c(C)csc4n3)c2)c1,inactive: -12.9%
7,CCc1cccc(N2C(=O)CSC23C(=O)N(Cc2ccccc2F)c2ccccc23)c1 (centres undefined),inactive: 22.8%
8,COc1ccc(-n2ncc(C(=O)NCc3ccc4c(c3)OCO4)c2C2CCN(C(=O)OC(C)(C)C)CC2)cc1,inactive: -17.3%
9,COc1cc(NC(=O)Cn2c(=O)n(-c3ccccc3)c(=O)c3c4c(sc32)CCCC4)cc(OC)c1,inactive: 6.91%
10,Cc1ccccc1OCc1ccc(-c2nc(C#N)c(N3CCCCC3)o2)o1,inactive: -3.74%
11,CCCCNC(=O)c1cnn2c(C)c(Cc3c(C)cc(C)cc3C)c(C)nc12,inactive: -25.1%
12,COc1ccc(CC(=O)NCC(c2ccc(N(C)C)cc2)N2CCOCC2)cc1OC (centres undefined),inactive: 8.81%
13,CSc1ccc(CNC(=O)c2ccc3c(c2)N(C)C(=O)C2CCCCN32)cc1 (centres undefined),inactive: 3.86%
14,CC(C)COc1ccc(C(=O)Nc2scc(-c3ccc(Br)cc3)c2C(=O)OC(C)C)cc1,inactive: 1.01%
15,CCN(CC)c1ccc2cc(-c3nc(-c4ccccc4)no3)c(=O)oc2c1,inactive: -1.22%
16,Cc1ccc(CNC(=O)c2c(-c3ccc(F)cc3F)noc2C)o1,inactive: 0.347%
17,Cc1cc(C)c(NC(=O)Cn2nnc(C(=O)NCc3cccs3)c2N)c(C)c1,inactive: 2.13%
18,COc1ccc(-c2cn3nc(N4CCCC(C(=O)Nc5cc(Cl)ccc5OC)C4)sc3n2)cc1 (centres undefined),inactive: 29.4%
19,O=C(NCc1cccc(Cl)c1)C1CCN(c2nn3cc(-c4ccc(F)cc4)nc3s2)CC1,inactive: 7.09%
20,Cc1nc2cccnc2n1C1CCN(C(=O)Nc2ccccc2C(F)(F)F)CC1,inactive: -0.489%
21,CNS(=O)(=O)c1cn(CC(=O)N2CCN(c3ccc(Cl)cc3)CC2)cc1S(=O)(=O)NC,inactive: -1.38%
22,COc1ccc(C(=O)COC(=O)CCCC(=O)Nc2ccc(C(C)=O)cc2)cc1,inactive: 12.6%
23,CCOc1ccc(-n2nc(CO)c(C(=O)NCC(c3ccccc3)c3ccccc3)n2)cc1,inactive: -1.06%
24,O=C(NCc1ccccc1)c1cccc(N2CCCS2(=O)=O)c1,inactive: 1.24%

row,Compound,"activity change, negative = cytotoxicity"
1,O=c1ccc2cc(S(=O)(=O)NCc3ccc(Cl)cc3)ccc2[nH]1,inactive: -0.605%
2,Cc1nn(S(=O)(=O)c2ccc(C(C)C)cc2)c(C)c1S(=O)(=O)N1CCCCC1,inactive: 15.6%
3,CCc1cccc(C)c1NS(=O)(=O)c1ccc2c(c1)NC(=O)C(C)C(=O)N2 (centres undefined),inactive: 1.3%
4,CCOc1ccc(-n2c(=O)c3c4c(sc3n(CC(=O)NCCCOC)c2=O)CCCCC4)cc1,inactive: 0.967%
5,Cc1ccc2c(c1)-c1c(cnn1CC(=O)N1CCN(c3cccc(C(F)(F)F)c3)CC1)CO2,inactive: 11.7%
6,COc1ccc(CNC(=O)CN2C(=O)COc3ccc(S(=O)(=O)N4CCCCCC4)cc32)cc1,inactive: 17.9%
7,COc1ccc(-n2c(SCC(=O)NCc3ccccc3)nc3ccsc3c2=O)cc1,inactive: -17.2%
8,COC(=O)c1sccc1S(=O)(=O)N(CC(=O)Nc1cc(C)cc(C)c1)c1ccc(Cl)cc1,inactive: -5.59%
9,COCCOC(=O)Cn1nnc2sc(-c3ccccc3)cc2c1=O,inactive: 1.83%
10,CCOC(=O)c1ccc(NC(=O)CC2Nc3cc(C)c(C)cc3NC2=O)cc1 (centres undefined),inactive: -25.9%
11,COc1ccc(CNC(=O)c2ccc(CNS(=O)(=O)c3ccc(OC)cc3)cc2)cc1,inactive: 9.96%
12,COc1cccc(NC(=O)c2ccc3c(=O)n4nc(Nc5ccccc5OC)sc4nc3c2)c1,inactive: 15.2%
13,COCCCNC(=O)c1ccc(Cn2c(=O)c3ccccc3n(Cc3ccc(C)cc3)c2=O)cc1,inactive: 15.5%
14,Cc1ccc2cccc(NC(=O)c3ccc(-c4ccc(Cl)cc4Cl)o3)c2n1,inactive: -1.22%
15,O=C(CCNS(=O)(=O)c1cccc2nsnc12)Nc1ccc(F)cc1,inactive: -5.62%
16,COc1ccc(-c2nc3cc(NC(=O)COc4ccc(F)cc4)ccc3o2)cc1,inactive: 13.2%
17,Cc1csc2nc(-c3cccc(NC(=O)c4ccc(S(N)(=O)=O)cc4)c3)cn12,inactive: 29.2%
18,COc1ccc(S(=O)(=O)NCCc2sc(-c3ccccc3)nc2C)cc1OC,inactive: 1.71%
19,CCOC(=O)N1CCC(NC(=O)c2cnn(-c3ccccc3)c2C2CCN(C(=O)OC(C)(C)C)CC2)CC1,inactive: 0.823%
20,O=C(NCCC1=CCCCC1)c1ccc2c(c1)ncn2-c1cccc(Cl)c1,inactive: 3.86%
21,CCc1ccccc1NC(=O)CSc1ncc2c(n1)-c1ccccc1N(C)S2(=O)=O,inactive: -4.01%
22,CCOc1ccc(-c2cc(C)n3nc(C(=O)Nc4cc(Cl)ccc4O)cc3n2)cc1,inactive: 0.89%
23,COc1cccc(NC(=O)Cn2c(=O)n(Cc3nc(-c4ccccc4)no3)c(=O)c3ccccc32)c1,inactive: 1.39%
24,COc1ccccc1/C=C(\C#N)c1nc(-c2cc3ccccc3oc2=O)cs1,inactive: 19.2%

row,Compound,"activity change, negative = cytotoxicity"
1,COc1ccc(OC)c(CNC(=O)CCS(=O)(=O)c2ccc3c(c2)oc(=O)n3C)c1,inactive: -1.25%
2,Cc1ccc(NC(=O)[C@H](CSCc2ccccc2)N2Cc3ccccc3C2=O)cc1,inactive: 1.19%
3,CCN(C(=O)C(NS(=O)(=O)c1cccc2nsnc12)c1ccccc1)c1ccccc1 (centres undefined),inactive: -9.8%
4,COCCCNC(=O)CCCN1C(=O)CCn2nc(-c3cn(C)c4ccccc34)cc21,inactive: 2.32%
5,COc1ccc(-c2ccnc3c2c(=O)n(C)c(=O)n3C)cc1OC,inactive: 2.94%
6,CC1CCN(S(=O)(=O)c2cccc(C(=O)NC3CCS(=O)(=O)C3)c2)CC1 (centres undefined),inactive: 2.54%
7,Cc1cc(C)c(NC(=O)CN2C(=O)c3cccnc3Oc3ccc(Cl)cc32)c(C)c1,inactive: 7.77%
8,Cc1ccc(C(=O)N2c3nc(-c4ccco4)nn3C3(CCCCC3)[C@@H]3CCCC[C@@H]32)cc1,inactive: -9.23%
9,Cc1cc(Nc2ccc(C)c(Cl)c2)n2nc(-c3ccccc3)nc2n1,inactive: 1.15%
10,COc1ccc(CNC(=O)CCS(=O)(=O)c2cc(Br)cc3c2N(C(=O)C2CC2)CC3)cc1,inactive: -0.0449%
11,COC(=O)c1ccc(OCC2c3cc(OC)c(OC)cc3CCN2C(=O)c2cccc(C)c2)cc1 (centres undefined),inactive: -11%
12,COc1cccc(N2CCN(C(=O)CN3CCSc4ccc(S(=O)(=O)N(C)C)cc43)CC2)c1,inactive: -0.722%
13,COc1ccc(NC(=O)C2CCN(C3=NS(=O)(=O)C(c4ccc(C)c(C)c4)=C3C)CC2)cc1OC,inactive: -2.43%
14,O=C(Cn1nc(Cc2cccnc2)c2ccccc2c1=O)N1CCN(c2ccc(F)cc2)CC1,inactive: 1.59%
15,CCCSCCCNC(=O)C1CCCN(C(=O)c2cnn(-c3ccccc3)c2-n2cccc2)C1 (centres undefined),inactive: -0.592%
16,COc1ccc(Nc2ncnc3onc(C)c23)cc1Cl,inactive: 2.5%
17,COc1cccc(CNC(=O)Cn2c(=O)n3nc(-c4cccc(C)c4)nc3c3ccccc32)c1,inactive: 4.76%
18,CCCCN(Cc1ccccc1)S(=O)(=O)c1ccc2c(c1)CCN2C(=O)C1CCC1,inactive: 19.8%
19,Cc1ccc(CCNC(=O)c2ccc3c(c2)N(Cc2cc(C)ccc2C)C(=O)c2ccccc2S3=O)cc1 (centres undefined),inactive: 1.87%
20,CCN(CC)c1ccc(NC(=O)CN2C(=O)c3cccnc3Oc3ccccc32)c(C)c1,inactive: -10.4%
21,Cc1ccc(/C=C/c2onc(C)c2S(=O)(=O)N2CCC(C(=O)NCc3ccco3)CC2)cc1,inactive: 21.8%
22,COc1ccc2c(c1)NC(c1ccc(F)cc1)=NC(c1ccc(F)cc1)=N2,inactive: -4.77%
23,Cc1ccc(S(=O)(=O)NCCSc2nnnn2-c2ccccc2)cc1,inactive: -4.31%
24,COc1ccc2c(c1)NC(c1ccc(Cl)cc1)=NC(c1cccs1)=N2,inactive: 8.87%

row,Compound,"activity change, negative = cytotoxicity"
1,CC1=C(C(=O)Nc2ccccc2)C(c2ccc(O)cc2)n2nc(-c3ccc(Cl)cc3)nc2N1 (centres undefined),inactive: -11.9%
2,Cc1ccc(C)c(Cn2c(=O)n(Cc3ccccc3)c(=O)c3sc4ccccc4c32)c1,inactive: 0.937%
3,CC(C)(C)c1ccc(-c2nnc(-c3ccccc3NC(=O)c3cccc(C(F)(F)F)c3)o2)cc1,inactive: 8.68%
4,COc1ccc(NC(=O)CSc2cn(CCNC(=O)c3ccc(OC)cc3)c3ccccc23)cc1,inactive: 2.29%
5,COc1cccc(/C=C(\C#N)C(=O)Nc2ccc(NC(C)=O)cc2)c1OC,inactive: 5.75%
6,Cc1ccc(CN2C(=O)C3(c4ccccc42)N(c2ccc(C)c(Cl)c2)C(=O)CS3(=O)=O)cc1 (centres undefined),inactive: 3.66%
7,COc1ccc(Br)cc1CNC(=O)CSc1n[nH]c(-c2ccccc2)n1,inactive: -9.27%
8,CCC(C)[C@H](N)c1nnc(SCc2ccc(Cl)c(Cl)c2)o1 (some centres undefined),inactive: 2.48%
9,COc1ccc(NC(=O)CCS(=O)(=O)c2ccc3c(c2)n(C)c(=O)c(=O)n3C)cc1Cl,inactive: 0.0136%
10,CCOc1ccccc1Nc1nc2c(S(=O)(=O)c3ccc(C)cc3)nnn2c2ccsc12,inactive: -3.17%
11,CCc1ccc(NC(=O)CN2C(=O)CC(c3ccccc3)Sc3ccccc32)cc1 (centres undefined),inactive: 17.9%
12,CC(C)(C)OC(=O)N1CCC(c2c(C(=O)NCCN3CCOCC3)cnn2-c2ccc(F)cc2F)CC1,inactive: 3.52%
13,COc1ccc(-c2cccc(NS(=O)(=O)c3ccc(NC(C)=O)cc3)c2)nn1,inactive: -24.9%
14,CCCCCNC(=O)C1CCC(Cn2c(=O)c3sccc3n(CC)c2=O)CC1 (centres undefined),inactive: -21.4%
15,CCc1cccc(C)c1NC(=O)CN1C(=O)c2cccc3cccc1c23,inactive: 10.9%
16,CCOc1cc(/C=C(\C#N)C(=O)Nc2ccc(OC)cc2)ccc1OCc1cc(=O)n2nc(CC)sc2n1,inactive: 1.54%
17,Cc1ccc2nc(CSc3nnc(NC(=O)c4ccc(C(C)(C)C)cc4)s3)cc(=O)n2c1,inactive: -7.8%
18,CC(=O)Nc1ccc(NC(=O)c2ncoc2-c2ccco2)cc1,inactive: -1.11%
19,Cc1ccc(-c2nc3scc(CCNS(=O)(=O)c4ccc(Oc5ccccc5)cc4)n3n2)cc1,inactive: -21.5%
20,CCc1ccccc1NC(=O)Nc1ccc2snnc2c1,inactive: -27.3%
21,CCC(CC)C(=O)N1CCc2cc(OC)c(OC)cc2C1COc1ccc(F)cc1 (centres undefined),inactive: 0.184%
22,O=C(CSCc1ccc(F)cc1)NCc1ccc(F)cc1,inactive: -7.79%
